# Results taken from publication PMC4336329 (PLoS ONE, 2015).
# The whole screen tested about 310,000 compounds, of which about 14,000 (4.5%) showed an effect of 50% or more. The effect is printed as a negative number. Some of the results follow.
# Molecular target: human ether-à-go-go-related gene (hERG) potassium channel (human, UniProt Q12809)
# Assay: primary screen, population patch clamp on CHO cells stably expressing hERG
# 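Further: peak tail current of the secondary pulse compared with the same well before compound.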
# Sequence of human ether-à-go-go-related gene (hERG) potassium channel (Q12809 whole entry, looked up): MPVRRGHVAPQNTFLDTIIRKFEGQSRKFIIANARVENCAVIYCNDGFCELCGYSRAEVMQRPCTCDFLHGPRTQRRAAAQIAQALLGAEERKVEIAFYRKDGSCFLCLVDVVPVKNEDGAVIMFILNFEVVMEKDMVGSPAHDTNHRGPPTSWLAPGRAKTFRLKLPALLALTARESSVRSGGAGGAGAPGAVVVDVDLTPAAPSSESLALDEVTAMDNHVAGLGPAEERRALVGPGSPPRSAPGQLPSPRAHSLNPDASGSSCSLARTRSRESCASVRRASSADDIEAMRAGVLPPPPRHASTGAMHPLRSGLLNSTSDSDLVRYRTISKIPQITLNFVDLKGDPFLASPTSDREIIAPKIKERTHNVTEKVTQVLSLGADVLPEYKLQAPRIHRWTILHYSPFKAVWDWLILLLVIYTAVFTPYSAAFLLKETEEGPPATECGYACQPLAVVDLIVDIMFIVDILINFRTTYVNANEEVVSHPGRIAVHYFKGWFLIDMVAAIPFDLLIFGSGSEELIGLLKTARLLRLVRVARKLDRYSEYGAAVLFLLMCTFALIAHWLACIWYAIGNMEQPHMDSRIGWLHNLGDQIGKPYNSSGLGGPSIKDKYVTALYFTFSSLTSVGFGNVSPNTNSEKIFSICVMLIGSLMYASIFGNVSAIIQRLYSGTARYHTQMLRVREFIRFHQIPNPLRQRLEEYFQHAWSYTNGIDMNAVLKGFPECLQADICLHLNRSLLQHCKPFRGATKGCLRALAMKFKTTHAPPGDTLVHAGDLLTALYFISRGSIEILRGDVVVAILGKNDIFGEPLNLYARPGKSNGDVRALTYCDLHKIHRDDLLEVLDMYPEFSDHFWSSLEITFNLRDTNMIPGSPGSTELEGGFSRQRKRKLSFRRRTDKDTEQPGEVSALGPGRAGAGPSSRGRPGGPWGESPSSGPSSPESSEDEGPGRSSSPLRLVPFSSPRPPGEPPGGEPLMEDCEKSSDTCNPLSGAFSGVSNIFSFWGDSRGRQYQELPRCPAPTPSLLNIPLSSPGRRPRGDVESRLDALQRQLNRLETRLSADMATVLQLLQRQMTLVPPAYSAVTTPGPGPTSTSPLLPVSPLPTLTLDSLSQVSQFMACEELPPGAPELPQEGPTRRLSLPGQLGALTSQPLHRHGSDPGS
row,SMILES,"hERG current change (%, negative = inhibition) at 10uM [%]"
1,C/C(CC(O)(/C=N/O)c1ccccc1)=N\O (centres unmarked),17.8
2,O=C(c1ccccc1S(=O)(=O)NCc1ccccc1)N1CCCC1,-4.43
3,CCN(CC)S(=O)(=O)c1ccc(C(=O)OCC(=O)NC2CCCC2)cc1,21.1
4,O=C(c1ccccc1)N1N=C(c2ccccc2)CC1c1ccccc1[N+](=O)[O-] (centres unmarked),13.4
5,COc1cc(C=C(c2nc3ccccc3s2)c2nc3ccccc3s2)cc(OC)c1O,5.65
6,COc1cccc(CNS(=O)(=O)c2c(C(=O)N3CCCC3)c(C)n(C)c2C)c1,13.7
7,CCOC(=O)CSC1=Nc2ccccc2C2=NC(CC(=O)NCc3ccc4c(c3)OCO4)C(=O)N12 (centres unmarked),-26.9
8,C/C=C/C(=O)Nc1cccc(C2=NOC3(C2)C[C@H](C(N)=O)N(C(=O)/C=C/C)C3)c1 (some centres unmarked),1.04
9,Cc1nn(C(C)C(=O)O)c(C)c1[N+](=O)[O-] (centres unmarked),12.1
10,O=C(Nc1cccc(Cl)c1)O/N=C\c1ccncc1,5.05
11,CCCCN(CC)CCNC(=O)C1CCN(S(=O)(=O)c2cccc3nsnc23)CC1,-11
12,COC(=O)c1cnc(SC)nc1C,-6.57
13,C=CCNC(=O)[C@@H]1CSC2c3ccc(OC)c(OC)c3C(=O)N21 (some centres unmarked),16.4
14,C=C(C)CNC(=S)N/N=C/c1c(F)cccc1F,-1.01
15,O=C(Nc1ccncc1)c1cc(S(=O)(=O)N2CCN(c3ccccc3)CC2)ccc1Cl,-48.7
16,CCOC(=O)c1cc(C(C)(C)C)oc1CN,12.1
17,CC(=O)c1ccc(NC(=O)C(C)OC(=O)CCN=C2NS(=O)(=O)c3ccccc32)cc1 (centres unmarked),12.4
18,O=C(O)CCC(=O)Nc1ccc(-n2ccc(C(F)(F)F)n2)cc1,19.1
19,CCOC(=O)c1cnc(-n2nc(C)cc2C)nc1NNc1nc(-c2ccccc2)cc(-c2ccccc2)n1,-4.64

row,SMILES,"hERG current change (%, negative = inhibition) at 10uM [%]"
1,CC(C)c1ccc(/C=N/n2c(-c3ccccc3)n[nH]c2=S)cc1,14.6
2,CC(C)N(CCO)C(=O)CCc1nnc(CCCc2ccccc2)o1,9.35
3,Cc1ccc(NC2CCCN(C(=O)CCc3ccncc3)C2)cc1C (centres unmarked),-24.5
4,Cc1nc(C)c(Cc2ccccc2Cl)c(=O)[nH]1,0.737
5,O=C(CSc1nnc(Cc2cccs2)n1-c1ccccc1)NC1CCCCC1,-62.5
6,O=C(NCCCN1CCOCC1)c1ccco1,10.9
7,O=C(CSc1nc2ccccc2c(=O)[nH]1)Nc1ccccc1N1CCOCC1,6.66
8,CCOC(=O)c1ccc2c(c1)N(CC(=O)N1CCCCC1)C(=O)C(C)(C)O2,-13.8
9,COc1ccc(C(=O)CC(=O)C(=O)Nc2cc(OC)c(OC)c(OC)c2)cc1,8.58
10,CCC(C(=O)NC1CCCCC1)N(Cc1cccs1)C(=O)CCC(=O)Nc1cc(C)on1 (centres unmarked),-1.15
11,COc1cc(/C=N/NC2=NS(=O)(=O)c3ccccc32)ccc1OC(C)=O,11
12,COc1ccccc1OCCCOc1c(C)cc(C)cc1Br,-3.55
13,C#CNC(=O)C1(CC=C)CCNCC1,12.9
14,O=C1CC2(CON=C2c2ccc(F)cc2)C(=O)N1c1ccc(F)cc1 (centres unmarked),10.7
15,CCC(Oc1ccc(C)c(C)c1)C(=O)N1CCCN(C)CC1 (centres unmarked),-0.563
16,COc1cc(/C=C(\C#N)C(=O)Nc2cccc(C(=O)O)c2)ccc1OCc1ccc(C)cc1,10.1
17,Cc1ccc(C2SCC(=O)Nc3c2c(=O)[nH]n3C2CCOC(C)(C)C2)cc1 (centres unmarked),9.84
18,O=S(=O)(Nc1cccc(-c2cn3ccsc3n2)c1)c1ccc(F)cc1,-11.5
19,CCCC(=O)NC(c1ccco1)c1c(O)ccc2ccccc12 (centres unmarked),-12.9

row,SMILES,"hERG current change (%, negative = inhibition) at 10uM [%]"
1,COC(=O)C(Cc1c[nH]c2ccccc12)NC(C)=O (centres unmarked),11
2,COc1ccc(N(CC(=O)NCC2CCCO2)C(=O)CCC(=O)Nc2nccs2)cc1 (centres unmarked),14.1
3,N#CCCn1cc(C(=O)Nc2ccccc2Br)c(-c2ccc3c(c2)OCCO3)n1,-6.66
4,CCOC(=O)c1c(C)[nH]c(C(=O)OCC(=O)NCc2ccc(OC)c(OC)c2)c1C,6.99
5,O=C(CSc1nnc(-c2ccccc2F)n1C1CC1)NC(=O)c1cccc([N+](=O)[O-])c1,-52.8
6,O=C(C1=C[C@H](c2coc3ccccc3c2=O)C[C@H](OCc2ccc(CO)cc2)O1)N1CCN(Cc2ccccc2)CC1,-61.7
7,CN(C)C(=O)CSc1nnc(Cc2ccc3c(c2)OCO3)o1,19.3
8,COc1ccc(Br)cc1C(=O)Nc1ccc(Cc2ccncc2)cc1,-2.36
9,Cc1cc(N=Cc2c(O)n(-c3ccc4c(c3)OCO4)c(=O)c3ccccc23)ccn1,-11.8
10,COC(=O)c1ccc(CSc2nnc(NC(C)C)s2)o1,29.8
11,CN1C(=O)CC(N2CCN(Cc3ccc(Cl)cc3)CC2)C1=O (centres unmarked),2.2
12,c1csc(-c2cn3c(n2)SCC3)c1,-4.81
13,O=C(CN1C(=O)c2ccccc2S1(=O)=O)NC1CC2CCC1C2 (centres unmarked),2
14,CC(=O)c1cn(CC(=O)NCC2CCCO2)c2ccccc12 (centres unmarked),9.69
15,CCCCOc1ccc(N(CC(=O)NCC2CCCO2)C(=O)CCC(=O)Nc2cc(C)ccn2)cc1 (centres unmarked),-35.3
16,CCOC(=O)Cn1nc(C)n(-c2ccc(F)cc2)c1=O,20.4
17,O=c1[nH]c(/C=C/c2ccc3c(c2)OCO3)c([N+](=O)[O-])c(=O)[nH]1,45.8
18,CCCCn1c(N)c(N(CC(C)C)C(=O)c2ccc(C)c(S(=O)(=O)N3CCCCC3)c2)c(=O)[nH]c1=O,0.167
